According to PubChem BioAssay AID1918942 (Molecular Pharmacology Branch, DTP, NCI, 2023):
Not every entry of the source has a single result; some have several. This is not the full list of results. An entry can have further records. Values given together are repeats (runs, samples, wells, individuals or studies). Marks such as (2×) count equal records among those shown. A date in brackets names the month of the test.

Tested on: 743489-274-T-PDC complex spheroid viability
Experiment: Anticancer human tumor 743489-274-T-PDC patient-derived renal cell carcinoma cell line growth inhibition
Settings: stronger effect = lower value
From the text: Multicellular complex tumor spheroid response to LSD1 Inhibitor Iadademstat in combination with a variety of drugs and investigational agents in selected tumor cell lines
The current study was undertaken to assess response to LSD1 inhibitors in combination with standard-of-care drugs and investigational agents in solid tumor complex spheroid models as well as in the K-562 leukemia. Complex spheroids include a stromal component modeled by human endothelial cells (HUVEC) and fibroblasts modeled by human mesenchymal stem cells (MSCs). The concentration ranges selected for each drug and investigational agent were based upon clinically achievable concentrations if the clinical Cmax of the agent was known.
Compounds. The drugs and investigational agents used in this study are listed on Table 1. All of the agents used, including staurosporine (NSC755774) and gemcitabine (NSC613327), were obtained from the Developmental Therapeutics Program, NCI. FDA-approved anticancer drugs are available from the NCI at http://dtp.nci.nih.gov/branches/dscb/oncology_drugset_explanation.html. Drugs and investigational agents were >95% pure by proton nuclear magnetic resonance (NMR) and liquid chromatography/mass spectrometry (LC/MS). Stock solutions were prepared at 400x in DMSO, stored at -70 degrees C, and diluted in fresh medium prior to their use. The final concentration of DMSO in cell culture wells never exceeded 0.25% (v/v). The FDA-approved anticancer drug set is available from the Developmental Therapeutics Program at https://dtp.cancer.gov/organization/dscb/obtaining/available_plates.htm. All drugs and investigational agents were tested over a range starting from a high concentration at or near the clinical Cmax and decreasing in half-log increments. If the clinical Cmax for an agent had not been determined, the highest concentration tested was 10 microM.
Cell Lines. The patient-derived cancer cell (PDC) lines: 292921-168-R-J2-PDC, K24384-001-R-PDC, and 521955-158-R2-J5-PDC pancreatic carcinomas, 556581-035-R-J1 ovarian carcinoma, 324938-238-R-J1-PDC, 855422-203-R-J1-PDC and 883617-216-R-J1-PDC urothelial bladder carcinomas, 743489-274-T-PDC renal cell carcinoma, 138582-R-J1 Merkel cell tumor, K60290-347-R-J1 and K57222-313-R-J1-PDC glioblastomas, 653999-131-R-J2-PDC, LG0703-F948-PDC, and 349418-098-R-PDC non-small cell lung carcinomas, 885512-296-R-J2-PDC, 171881-019-R-J1-PDC breast carcinomas and 186277-243-T-J2-PDC and 233499-124-R-J2-PDC colon carcinomas were obtained from the NCI Patient-Derived Models Repository (PDMR, https://pdmr.cancer.gov). The established cell lines NCI/ADR-RES (RRID:CVCL_14520 and OVCAR-5 (RRID:CVCL_1628) ovarian carcinomas, 786-O (RRID:CVCL_1051) and A498 (RRID:CVCL_A498) renal cell carcinoma, NCI-H211 (ATCC, cat. CRL-5824; RRID:CVCL_1529), NCI-H196 (ATCC, cat. CRL-5823, RRID:CVCL_1509), SW 1271 (ATCC, cat. CRL-2177, RRID:CVCL_1716) and NCI-H1876 (ATCC, cat. CRL-5902, RRID:CVCL_1503) small cell lung carcinomas, MDA-MB-231 (RRID:CVCL_0062) and MDA-MB-468 (RRID:CVCL_0419)breast carcinomas (10-12). Pooled donor human umbilical vein endothelial cells (HUVEC, Lonza, cat. CC-2519) and human mesenchymal stem cells (hMSC, Lonza, cat. PT-2501) were purchased from Lonza (Walkersville, MD).
Cell Culture. All cells were maintained in an incubator at 37 degrees C and 5% CO2 with 95% humidity. The PDC lines were cultured according to standard operating procedures established by the NCI PDMR (https://pdmr.cancer.gov). Briefly all PDCs were thawed and cultured in Matrigel-coated flasks prepared with a working solution of 1X Ham's F-12 nutrient mix, without supplementation (Invitrogen, Waltham, MA, cat. 11765054), 100 U/mL penicillin-streptomycin (Invitrogen, cat. 15140122), and 2.5% Matrigel (Corning Inc., Corning, NY, cat. 354248) for the first three passages. […]
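Note: spheroids exposed to compounds for 7 days before readout; 100% = DMSO vehicle control wells.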

Q: With CC(C)c1c(-c2ccccc2)nc2c(C#N)c[nH]n2c1=O as the compound, how does the viability, T/C (compound alone 10 µM) read?
A: The viability, T/C was 77.2% [2021-11] and 113% [2021-12].

Q: With NC1CCC(NC2CC2c2ccccc2)CC1 (stereo not drawn) as the compound, how does the viability, T/C (compound alone 0.1 µM) read?
A: Its viability, T/C is 96.1, 102 (4×), 97.1, 105, 107 (3×), 112 (2×), 110, 96.2, 99.1, 104, 111, 99.7, 99.9, 77.3, 103, 94.1, 94.8, 120, 106%.

Q: And the viability, T/C (compound alone 1 µM)?
A: The viability, T/C was 122, 118, 114 (2×), 111 (3×), 120 (2×), 109 (2×), 86.1, 128 (2×), 116, 101, 90.6, 106, 119, 110 (2×), 97.1, 94, 105, 112%.

Q: What about the viability, T/C (compound alone 3.16 µM) of the same compound?
A: The viability, T/C was 110, 106, 105 (3×), 122, 114 (2×), 109 (2×), 112 (3×), 104 (2×), 99.4, 115, 91.5, 103, 111, 117, 98.8, 101, 98.9, 121%.

Q: What about the viability, T/C (compound alone 10 µM) of the same compound?
A: The viability, T/C was 112, 110, 113 (2×), 102, 128, 101, 126, 99.6, 95.4, 107 (3×), 100, 82.2, 90, 122 (2×), 95, 95.2, 118, 97, 106%.

Q: For NC1CC1c1ccc(-c2cccc(O)c2)cc1 (stereo not drawn), which viability, T/C (compound alone 1 µM) is on record?
A: Its viability, T/C is 109, 102 (3×), 99.9, 92.8 (2×), 106, 87.4, 91.7, 99.8, 96.4, 96.2, 101, 110, 88, 90.1, 98.8, 116, 91.9, 95 (2×), 104, 89.1, 105%.

Q: What about the viability, T/C (compound alone 3.16 µM) of the same compound?
A: The viability, T/C was 90.4, 95.6, 102 (2×), 89.5, 97.9, 86.4, 94.7, 106, 110 (2×), 92.4, 104, 98.2, 107, 87.4, 90.7, 103 (2×), 109, 93.1, 97.1, 98.3, 96.4, 112%.

Q: And the viability, T/C (compound alone 10 µM)?
A: Its viability, T/C is 97.8, 114, 86.3, 89.1, 86.5, 100 (2×), 99.4, 97.9, 109 (2×), 93.7, 98.2, 105 (2×), 102, 88.6, 98, 101 (2×), 64.8, 103, 89, 92, 92.9%.
